Measurements published in PubChem BioAssay AID588342 (National Center for Advancing Translational Sciences (NCATS), 2011).
The whole screen tested about 360,000 compounds, of which about 25,000 (6.9%) were called active. This list was built around the results that the source calls inconclusive (neither active nor inactive); the mix of calls is not that of the screen. The call rests on the fitted dose curve; in most records, active means well fitted inhibition curve with a large enough effect; inconclusive means small, poorly fitted or top-dose-only effect; inactive means flat fitted curve, though single readings scatter. Potencies beside an inconclusive call are fits to weak or partial responses and may not hold up.

Molecular target: Luciferin 4-monooxygenase (Photinus pyralis) (UniProt P08659)
Chain of UniProt P08659 (P08659 whole entry, looked up): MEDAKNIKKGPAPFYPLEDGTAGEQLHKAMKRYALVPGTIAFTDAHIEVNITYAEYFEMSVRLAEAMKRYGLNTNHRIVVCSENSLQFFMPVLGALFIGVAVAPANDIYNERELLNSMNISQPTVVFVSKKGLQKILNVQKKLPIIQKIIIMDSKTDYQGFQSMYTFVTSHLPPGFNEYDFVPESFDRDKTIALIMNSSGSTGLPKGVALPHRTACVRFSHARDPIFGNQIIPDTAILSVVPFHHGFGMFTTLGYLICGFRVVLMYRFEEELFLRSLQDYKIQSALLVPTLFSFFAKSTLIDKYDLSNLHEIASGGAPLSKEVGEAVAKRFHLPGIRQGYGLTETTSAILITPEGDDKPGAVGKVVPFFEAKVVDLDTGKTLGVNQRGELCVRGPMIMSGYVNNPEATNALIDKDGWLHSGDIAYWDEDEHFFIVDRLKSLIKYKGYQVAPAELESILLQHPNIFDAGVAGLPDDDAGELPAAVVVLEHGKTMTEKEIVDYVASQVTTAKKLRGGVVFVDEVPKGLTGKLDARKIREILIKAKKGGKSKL
Test: qHTS profiling assay for firefly luciferase inhibitor/activator using purifed enzyme and Km concentrations of substrates (counterscreen for miR-21 project); further: nearly all actives have a fitted effect of over 55% in size
Settings: purified FLuc, luminescence inhibition; series mostly up to 57.5 µM
Outline: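 Biochemical qHTS of compounds, final roughly 60 µM downward over six points, against 10 nM purified firefly luciferase using Km concentrations of substrates (10 uM D-luciferin, 10 uM ATP) in Tris acetate pH 7.5 buffer; luminescence output.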
Potency means the concentration at half of the fitted maximal effect; tags describe the fitted curve by direction and shape.

Structure (SMILES) | Potency
CS(=O)(=O)Nc1ccc(C(=O)NCCC2=CCCCC2)cc1 | inconclusive: 23.9 µM [inhibitor, single point]
COc1ccc(-c2nc3ccccc3s2)cc1NC(=O)COc1cccc(C)c1 | inconclusive: 12 µM [inhibitor, partial curve]
Cc1cccc(Cn2nc(C)cc2NC(=O)CCCn2ccc([N+](=O)[O-])n2)c1 | inactive
CC(c1ccccc1)N1CC(C(=O)N2CCN(Cc3ccc(C#N)cc3)CC2)CC1=O (stereo not given) | inactive
CCOc1ccc(NC(=O)C(=O)NCCc2ccccc2)cc1 | inactive
COc1ccc(NC(=O)c2ccc(COCC(F)(F)C(F)F)cc2)cc1OC | inconclusive: 23.9 µM [inhibitor, single point]
CCOc1ccc2nc(NC(=O)c3ccccc3)sc2c1 | active: 0.536 µM
CCOc1cc(/C=N/N=C(N)N)ccc1OCc1ccc(Cl)cc1 | inconclusive: 12 µM [inhibitor, partial curve, poor fit]
Cn1c(=O)c2nc(-c3ccc(Cl)cc3Cl)oc2c2ccccc21 | inconclusive: 3.79 µM [inhibitor, full curve]
COC(=O)c1ccccc1NC(=S)N1CCC(N2CCCCC2)CC1 | inactive
Cc1ccc2c(c1)c1ncnc(N3CCOCC3)c1n2C | active: 15.1 µM
CCOc1ccccc1C(=O)N(Cc1ccco1)Cc1ccccc1F | inactive
O=C(CN1CCN(Cc2ccccc2)CC1)Nc1ccc(Br)cc1 | inactive
CCOC(=O)c1ccc(N/C=C\C(=O)c2cccc(OC)c2)cc1 | active: 3.01 µM
O=C(NC(=S)Nc1sc2c(c1C(=O)O)CCCC2)c1ccccc1 | inconclusive: 23.9 µM [inhibitor, single point]
Cn1c(SCc2ccccc2)nnc1-c1cccs1 | inconclusive: 21.3 µM [inhibitor, single point]
CCc1nnc(NC(=O)CN2C(=O)/C(=C/c3ccc(OC)c(OC)c3)SC2=S)s1 | inconclusive: 10.7 µM [inhibitor, partial curve]
COC(=O)c1ccccc1NC(=O)NC1CCC(C)CC1 (stereo not given) | inconclusive: 7.57 µM [inhibitor, full curve]
CC(=O)NS(=O)(=O)c1ccc2sc(C)nc2c1 | inactive
O=C(/C=C/c1cccc([N+](=O)[O-])c1)N1CCN(Cc2ccccc2)CC1 | inactive
CN(C(=O)CN1C(=O)C2C3CC(C(Br)C3Br)C2C1=O)C1CCCCC1 (stereo not given) | inactive
CCn1c(O)c(N=Nc2ccc3ccccc3n2)c2ccccc21 | active: 3.01 µM
Cc1cc(C)c2c(=O)[nH]c(SCC(=O)Nc3ccc(N(C)C)cc3)nc2n1 | inconclusive: 26.9 µM [inhibitor, partial curve, poor fit]
Cc1ccccc1OCc1nc2ccccc2[nH]1 | active: 4.78 µM
CC(C)C(=O)Nc1cccc(NC(=O)CCN2C(=O)c3ccccc3S2(=O)=O)c1 | inactive

Structure (SMILES) | Potency
C=CC[n+]1c(C)csc1Nc1ccc(C)cc1 | inconclusive: 37.9 µM [inhibitor, partial curve, poor fit]
CC(=O)c1c(C)[nH]c(C(=O)OCC(=O)c2ccc(C)s2)c1C | inconclusive: 15.8 µM [inhibitor, partial curve, poor fit]
O=C(Nc1cccc(-c2cn3c(n2)SCC3)c1)c1ccc(Br)o1 | inconclusive: 26.9 µM [inhibitor, single point]
COc1ccc(S(=O)(=O)N2Cc3ccccc3CC2C(=O)Nc2ccc3c(c2)OCO3)cc1 (stereo not given) | inconclusive: 30.1 µM [inhibitor, single point]
O=C(Nc1ccccc1)Nc1nc(-c2ccccc2)cs1 | inconclusive: 2.69 µM [inhibitor, partial curve, poor fit]
Cc1oc(-c2cccc(Cl)c2)nc1CSCC(=O)NCc1ccccc1Cl | inconclusive: 26.9 µM [inhibitor, partial curve, poor fit]
CCNS(=O)(=O)c1ccc(CCC(=O)N2CCN(C(=O)OCC)CC2)cc1 | inactive
O=C(c1ccc2c(=O)n3c(nc2c1)CCCCC3)N1CCc2ccccc21 | inconclusive: 30.1 µM [inhibitor, single point]
CCC(C)c1ccc(O)c(NC(=O)c2ncn[nH]2)c1 (stereo not given) | inconclusive: 26.9 µM [inhibitor, single point]
CCCCC(=O)OCC(=O)Nc1ccc(OC(F)F)cc1 | inconclusive: 30.1 µM [inhibitor, partial curve, poor fit]
Cc1cc(C(=O)CN2C(=O)C(=O)N(C3CCCC3)C2=O)c(C)n1CCc1ccc(F)cc1 | inactive
COC(=O)N/N=C1\CCCc2ccccc21 | inactive
COc1ccccc1Cn1c(SCC(=O)C(C)(C)C)nc2ccccc2c1=O | inactive
Clc1cccc(CSc2ccc(-c3cccs3)nn2)c1 | inconclusive: 19 µM [inhibitor, partial curve, poor fit]
Cc1cc(/C=C(\C#N)C(=O)OCC#N)c(C)n1CC(C)C | inconclusive: 26.9 µM [inhibitor, single point]
Cc1cc(C(=O)CSc2n[nH]c(N)n2)c(C)n1-c1ccccc1 | active: 6.01 µM
CC1(C)CC(=O)C(N=Nc2ccc(C(F)(F)F)cc2[N+](=O)[O-])=C(O)C1 | inactive
N#Cc1nccnc1S(=O)(=O)c1cccs1 | inconclusive: 12 µM [inhibitor, partial curve, poor fit]
NC(=O)c1c(NC(=O)c2cccs2)sc2c1CCCCCC2 | active: 4.78 µM
O=C(OCC(=O)N1CCN(C(=O)c2ccco2)CC1)c1cc(-c2ccc(F)cc2)nc2ccccc12 | active: 10.7 µM
COc1ccccc1C(=O)Nc1ccccn1 | active: 7.57 µM
CCOC(=O)N1CCN(C(=O)CN(C)S(=O)(=O)c2ccc(Cl)cc2)CC1 | inactive
COc1ccc2nc(NCc3cccnc3)sc2c1 | inconclusive: 26.9 µM [inhibitor, single point]
CCCN(CCC)CCNC(=O)c1cc2c(=O)n(C)c3ccccc3c2n1C | inactive
CCCn1c(SCC(=O)N2CCCC(C)C2)nnc1-c1ccccn1 (stereo not given) | inconclusive: 0.0067 µM [inhibitor, partial curve, poor fit]
